Data as given in the supplement of paper PMC11417369.
The other results are listed elsewhere or left out.

System: PfSIP2 AP2 domain 1 (GST-tagged)
Experiment: gcPBM binding intensity (ln(normalized median fluorescence intensity)); higher = stronger DNA binding
In short: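 Plasmodium falciparum DNA-binding domains carrying a GST tag were expressed in E. coli and applied for 1 h, at about 25 μg on average, to an Agilent 4 × 180k array. The array held primer-extended double-stranded 36-bp intergenic genomic probes together with negative controls, and binding took place in 1× PBS with 1% milk, 0.2 mg/ml BSA, 0.5% salmon testes DNA and 0.03% Triton X-100. An Alexa488 anti-GST antibody detected bound protein, and the array was scanned at 488 nm. Binding intensity is taken as the highest Masliner-normalised natural-log median intensity across replicate spots of either probe orientation.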

Sequence | gcPBM binding intensity (ln)
AAAAAAAAAAAAAATAGTACGTAACTATAATTTCCT [XGTACX_site2457] | 7.3
AAATTATAAGTAAAAAGTACTTAATATATAATAAAC [XGTACX_site6065] | 7.08
CTTATACTTCTACATCGTACAAAAGATGGTATAATT [XGTACX_site2698] | 7.09
TAACTTAAATAATACATACACACATGTACATACAGA [CACACA_site1594] | 6.91
TATAATTTTTTTTGGGTGCTTGGGTAAATTTTATTA | 7.86
AATTATATATTATCATGTACAAATATAGTAATACAA [XGTACX_site6845] | 7.06
ATACGTATATAATATACATGCATATATAGCACATAC [TGCATGCA_site376] | 7.61
ATAAAAAAAAAAAAAAATGAAGCATCACCGTGTAAT [XGTACX_negctrl_site288] | 6.99
CACGAAAAAAAAAAATGTACATAAAAATATGATACA [XGTACX_site2536] | 6.85
AAAAAAAAAAAAAAAAAAAAAGGACGGATGGATGGA [GTGCAC_negctrl_site527] | 8.37
TCTCATTTCAACAACAGTACATATCTATCTGTGTAT [XGTACX_site6897] | 6.96
GAAAGAGAAATATATACACACATATTTATATTTTTA [CACACA_site2066] | 6.85
CCTAATTTTTTTAGTTGTACTTTTTTTTTTTTTTAT [XGTACX_site7948] | 7.06
GCCTATATGTTTAGTTGTACTCCTAATATTATTTGT [XGTACX_site6060] | 7.16
CAAATTATTTCGAGGTGTACTTTTTTATATTATATT [XGTACX_site8309] | 7.34
AATGTGTTCATATATGCACACGCATATATATTATTG [CACACA_site9274] | 7.14
TATATAAATGGACACACACACACCTTATAATTATTA [CACACA_site6093] | 7.17
TTTATAAATTGACACACACACATGTGAACATAAAAA [CACACA_site6978] | 7.16
ATGTAACACATATTTGGTACAGATAGATAAAAGTAT [XGTACX_site8291] | 7.3
GTATAATATATTTATAGTACATAATTATTTATAAAT [XGTACX_site1826] | 7.16
TTTTTAAATAACCTATATATTATTATGAAACATAAA [CACACA_negctrl_site916] | 6.86
TATATATATATATTCACACATAAAAATAAAATAAAA [CACACA_site4774] | 8.88
ATATATATATATGTGTGTACTTATTTATTTATTTGT [XGTACX_site549] | 9.27

Sequence | gcPBM binding intensity (ln)
TTTTCTTAATATTTATGTATATATATAATATGATAT [TGCATGCA_negctrl_site572] | 6.99
TAATAAATCCTATATAGTACATATATGCAAGTATGT [XGTACX_site3955] | 7.12
ACATTAATATAAAGCACACATATATATAATATATAT [CACACA_site508] | 7.35
ATTGATTTTTAATATACACACATAAGTACCACAAAA [CACACA_site339] | 7.3
AAAAATATAAACTGCACACACAAAAAAAAAAGAGAA [CACACA_site1367] | 7.44
TATAACATATTTATATATGACATTATCTATTCATTT [CACACA_negctrl_site864] | 6.84
CCCGTAAATACAAAAAGTACAAAAGTTCATCTTATA [XGTACX_site1154] | 6.91
ATATTATGTGATTGTGCACACTGGAGATTTTTTTTA [CACACA_site1453] | 9.01
CAATATTATTATATTTGTACACATGCGTATTTTTTA [XGTACX_site4154] | 6.94
TTAATATTGTATCCAAGTACACAAATTATTATATTT [XGTACX_site8067] | 7.11
CATGATATATAAATATGTACATATATATATATATAT [XGTACX_site1760] | 9.56
TAATAATAATATAAAATACACACCTATTATTTTTAC [CACACA_site4003] | 6.97
ATATAAATATAAACATGTACATATATATATATATAT [XGTACX_site2824] | 9.04
GAAACGTTTTTGAGTAGTACACACACAATAAGGATG [XGTACX_site6809] | 7.4
TTTGTAATAACATATGCATGTTCAAAAAATAAAATA [TGCATGCA_site817] | 6.9
ATTTTTTTATAAAATTTTTTATATATTAAATATTAT [CACACA_negctrl_site135] | 6.76
ACGTTTTATTTTTATTGTACTCACATTGAAATGAAT [XGTACX_site6094] | 7.58
ATATATTTATACATTTGTACATATACATATTTCTGA [XGTACX_site3982] | 7
ATTTTTTTTGTAAAAGTGCATATATATATATATATA | 9.41
AAAATTGTGCTTTCACGGACACAAGATCGAAATAGA [XGTACX_site4068] | 6.88
AAATTTATATAAAACAGTACAATTAAAAAAAAAATA [XGTACX_site8015] | 6.92
ATTTATCTATATATATGTACATATTATTTTTGTGGT [XGTACX_site7390] | 7.21
ATAAAAAAATATAAATGTACATATATATATATATAT [XGTACX_site5620] | 9.56

Sequence | gcPBM binding intensity (ln)
GATATACAATTTAAGTGTACTATAATAAAATATATA [XGTACX_site3013] | 6.98
TATATTAATTCGTTTTGTACACACATAATGAATAAT [XGTACX_site4618] | 6.93
TTTAAAATATTGTATTGTACGCAATAAAAAATACCA [XGTACX_site182] | 7.16
ATAAGCATCTTTTGTGTGCACATAACAAAAAAAAAA | 8.74
ATTAAATAAAATCATGCACACAATATATATTTTAAG [CACACA_site2495] | 7.97
TCTAACATATCTTTAATACACACTTAAAAAAGTACT [CACACA_site652] | 7.03
AAATACATATATACATGTACATAAATATATATATAT [XGTACX_site5367] | 8.9
ATAGATATACATATCACACATATATATATATATATA [CACACA_site4985] | 9.84
TAAGGTAGTTCTGTATCACACACATATATATATATA [CACACA_site8693] | 9.42
TGAGAAAGCGCATATTGTACTATATATTTTAACCAC [XGTACX_site4098] | 7.19
AATCCATTCTATTTTTTACACACGTATGTAAATATT [CACACA_site8860] | 7.07
AATATATATGGACATGCATGGACATAATAATCTATT [TGCATGCA_site838] | 6.75
GAAAATAATGTTACATGTACGAATATGTAACTATTG [XGTACX_site6833] | 6.84
CATAAAAATGTATCAAGTACACATTTATTTATCCAT [XGTACX_site152] | 7.18
GTATAACACAAGTGAAGTACAGGGGTAAACATTTAT [XGTACX_site3203] | 7.21
TACAGATAAAAGTACACACACACACCGATATATATA [CACACA_site4675] | 7.46
TTAAAATAAAGAGCAGTGCGCATATTTTGTTATTAT [GTGCAC_site9753] | 7.79
ATAAAAAAATATGTAAACATATATATGTATTTATGT [CACACA_negctrl_site1517] | 7.04
AAACAATTTTTATTTTGTACATAACAATATATTTAT [XGTACX_site1375] | 6.91
TTTTTTTTTAAAGAAAATAAAAATATGTACTTGACA [CACACA_negctrl_site1113] | 6.96
TTTTTATATTTTATTAGTACTTATTATATATATAAT [XGTACX_site4900] | 7.15
ATTTTACATATTTGCACACATATATTTATATACATA [CACACA_site854] | 7.41
TTATTTGTTTAATATGCATGCTAAAAGGGTTGATGT [TGCATGCA_site581] | 7.34

Sequence | gcPBM binding intensity (ln)
GAGTAAAACAAATATACACACCATAAAGTTATAAAA [CACACA_site5008] | 6.86
AATATAAAAATGCACACACACAAAAAAAAAAAAAAA [CACACA_site6546] | 7.37
AATTTAAATTCATCACGTACATACGTGAATATACAC [XGTACX_site5220] | 7.24
TTTTTTTTTTGATGTTGTACATATATATTATATAAT [XGTACX_site2765] | 7.17
GCTATTTATTTATATTGTACTTTTTTTTTTTTTTTT [XGTACX_site3624] | 7.67
TATTTTGTTCTTTCCACACACAAATACCTATCTTGT [CACACA_site7833] | 7.39
ATTCGTGAACTAGCCAAACACACGAAAAAAAAAAAA [CACACA_site3342] | 7.04
ATGTAACATAGGAAATGTACATATAAATATAATTTA [XGTACX_site6452] | 6.86
TTTTATTGATTATTCATAAATATGCTATTCATCTAA [CACACA_negctrl_site1084] | 6.94
TTTTTTTTTGGGGGTGCATGCAAGACATATATTTAA [TGCATGCA_site228] | 11.6
CATACATATATATATACACACATACATATATATACA [CACACA_site8165] | 7.33
TATTTTAATATTTGTAGTACAGATTGAAATGACGAA [XGTACX_site4805] | 7.85
ATATACGCATTAATAACACACAATATGATAACAAAT [CACACA_site3623] | 7.2
AATATAATCTTTCAAAAGAAAAAGACTTCATGAAAA [CACACA_negctrl_site1331] | 6.65
AAAATGTATGGAATGCTCTTTTTTAAGTATTATATA [GTGCAC_negctrl_site175] | 6.69
ACAAAATTGATATATGCACACATATATATATTAAAT [CACACA_site8152] | 7.26
GTAGGTTTATATTGTAGTACATACAAACGTTAACAA [XGTACX_site5476] | 7.14
TTTATTTATTATTAAAGTACTAAAATATATTATTAT [XGTACX_site4887] | 7.18
ATACGTATTTTCTTTTGTACATATATATAAAATATT [XGTACX_site2675] | 7.23
TATATTTATTAGTTTCGTACGTACAAAGTTATTTTT [XGTACX_site8847] | 7.07
